# Reference: ChEMBL document CHEMBL4888484, “Replenishing the malaria drug discovery pipeline: Screening and hit evaluation of the MMV Hit Generation Library 1 (HGL1) against asexual blood stage Plasmodium falciparum ,using a nano luciferase reporter read-out” (2022)
# Among all 150,000 compounds or so, about 540 (0.36%) showed an effect of 50% or more. This is one part of the list.
# Test system: Plasmodium falciparum
# Test: Primary screen in NF54 nanoGlo assay, in single point, at 2uM, 72h; a lower Z score goes with more inhibition
# Format: functional, Erythrocyte
# Conditions: timepoint 72 hour
SMILES,% Inhibition [%],Z score
COc1ccc(NC(=O)c2c(F)c(F)c3c(c2F)N(Cc2ccccc2)CCS3(=O)=O)cc1,-6,0.85
CC(C)(C)[C@@H](O)CNc1nnc(C(F)(F)F)s1,-3,0.52
CCOCc1ccccc1NC(=O)c1nc(-c2cccc(Cl)c2)[nH]c1C,4,-0.59
NC(=O)N(Cc1cccc(Br)c1)CC1(O)CCCCC1,6,-0.76
CC(C)Cc1nc(CC(F)(F)F)n(-c2cccc3cccnc23)n1,15,-1.93
CNC(=O)CNC(=O)c1cccc(NC(=O)[C@]2(C)CCCO2)c1,-2,0.16
O=c1c2ccccc2ncn1C[C@@H](O)CC1CCCC1,-7,0.85
CC(C)N(CCC(N)=O)S(=O)(=O)NCc1ccccc1,-13,2.1
C=CCC(C(=O)N1CCC(O)(CO)C1)c1ccccc1 (stereo not given),-12,2.4
Nc1nccc(-c2ccc(-n3cncn3)cc2)n1,-2,0.22
CC(C)n1ccc(Cn2cnc(C#N)n2)n1,4,-0.68
O=C(O)C1Cc2c([nH]c3ccccc23)C(/C=C/c2ccccc2)N1 (stereo not given),36,-0.97
CC(=O)N1CCN(C(=O)c2nn(-c3ccc(C)cc3)c(=O)n(Cc3ccc(C(F)(F)F)cc3)c2=O)CC1,-1,0.1
O=C(c1cc2ccccc2o1)N1Cc2cncnc2C1,-16,2.75
O=C1CN(S(=O)(=O)CCC(F)(F)F)CCN1c1ccccn1,18,-2.32
Cc1cnc(C(=O)N(C)CCCc2nccn2C)cn1,-17,3.15
C[C@H]1CN(c2ncnc3ccccc23)C[C@@H]1CS(N)(=O)=O,0,0.04
Cc1ccc(-c2nc(CN[C@H]3CCc4ncnn4C3)cs2)o1,-21,1.79
COCC1CCN(S(=O)(=O)N(C)Cc2nc3cc(Cl)ccc3[nH]2)CC1,-6,0.91
NCCNCCCOc1ccc(Br)cc1Cl,1,-0.17
CN(C)CCCNC(=O)c1cccc(Cl)c1,2,-0.41
C[C@H]1C(=O)NCCN1Cc1cnns1,17,-2

SMILES,% Inhibition [%],Z score
COC(=O)C1CCC(Nc2ccc(C)c(C(=O)NC(C)C)c2)CC1 (stereo not given),6,-0.65
CC(C)c1nnc(NCc2ccc3c(c2)CCO3)o1,15,-1.33
Cc1ccc(S(=O)(=O)n2cc(C)[nH]c2=O)cc1,-23,2.15
COc1cc(-c2nccn2C[C@H](C)Oc2cccnc2)cc2c1OCO2,-10,0.96
CC(C)c1ccc(C(=O)NCCCN2CCCO[C@@H](C)C2)nc1,-8,1.3
Cc1nc(CN2C[C@H]3CCC[C@@H](C2)N(C)C3)n(C)c1C,-1,0.24
Cc1nccc(-c2cccc(NC(=O)c3sccc3S(=O)(=O)N3C(C)CCCC3C)c2)n1 (stereo not given),3,-0.41
Cc1nc(NCc2ccccc2)sc1-c1ccn(C)n1,-13,1.46
CO[C@H]1C[C@H]2CN(C(=O)NCc3ccc(C)cc3)[C@@H](C)C(=O)N2C1,12,-1.5
COc1ccc(C)cc1NC(=O)[C@H]1CN(S(=O)(=O)C2CC2)CC12CCCCC2,-4,0.69
Cc1ccc(Cc2nc(N3CCN(C(=O)c4ccco4)CC3)c3cnn(-c4ccccc4)c3n2)cc1,-10,1.83
Cc1noc(C)c1CO[C@H]1COCC[C@@H]1NC(=O)c1c(C)noc1C,-3,0.54
CCc1ccc(N2C(=O)N(C)C(C)(C)C2=O)nc1,-11,1.97
O=C(Cc1ncc(C(F)(F)F)cc1Cl)NCc1cccnc1,0,-0.02
CN(C(=O)CCS(C)(=O)=O)c1nsc2ccccc12,-9,1.42
CCS(=O)(=O)NCCCNC(=O)N(C)[C@@H](C)C1CC1,-7,0.69
CCOC(=O)CC1CCN(CC2CC2)CC1,-9,0.92
C[C@@H]1CN(C[C@@H]2CN(c3noc(-c4ccccc4)n3)C[C@@H]2CO)C[C@H](C)O1,-15,2.5
COc1ccc(S(=O)(=O)N2C[C@@H]3C[C@H](C2)c2c(NC(=O)c4cncnc4)ccc(=O)n2C3)cc1,-8,1.5
COC(=O)Nc1ccc(F)c(Cl)c1,3,-0.45
Cc1c(Cl)cccc1NC(=O)CCNS(C)(=O)=O,-8,1.04
Cn1c(=O)c2c(=O)c(Cl)c(N)[nH]c2n(C)c1=O,-31,3.64

SMILES,% Inhibition [%],Z score
CC(C)OCCN(C)C(=O)Cc1ccn[nH]1,-4,0.39
CS(=O)(=O)N1CCC(C(=O)Nc2c(C(N)=O)sc3nc(C(F)F)cc(C4CC4)c23)CC1,35,-5.12
CCN1C(=O)[C@@]2(c3ccccc31)[C@@H]1C(=O)N(c3ccccc3F)C(=O)[C@@H]1[C@@H]1CCCN12,-5,0.42
N#Cc1cnc(N2CCC[C@@H]2CCC2CCCC2)cn1,-7,1.22
Cc1ccccc1C(=O)N[C@@H]1CCCC[C@H]1NC(=O)C1CCN(C(=O)c2cc(Cl)cc(Cl)c2)CC1,-10,1.67
CCn1c(-c2cccc(C(=O)Nc3cc(OC)cc(OC)c3)c2)nc2cccnc21,1,-0.11
Cc1cc(C)c(C(=O)NC(C)COC2CCOC2)c(C)c1 (stereo not given),-6,1.1
Cc1nc(N2CCC(C(=O)Nc3cc(F)ccc3F)CC2)c2c(C)c(C)oc2n1,-15,1.55
Cc1n[nH]c(CN2C[C@H]3CCC[C@@H](C2)N(C)C3)c1Cl,-19,2.42
CCN(CC)CC#C[C@H](C)OC(=O)c1cccc(-n2cccn2)n1,9,-1.14
O=C(Nc1ncccc1-c1ccccc1)c1ccccc1C(F)(F)F,-14,1.53
CCNC(=O)N(Cc1nc(CC)c(Cc2cccc(OC)c2)c(=O)[nH]1)Cc1ccco1,-2,0.29
COc1cc(CC(=O)N2CCN(c3cc(C)n4cnnc4n3)CC2)cc(OC)c1,0,-0.09
COc1ccc(CCC(=O)N(C)C)cc1F,-9,1.28
COc1ccc(NS(=O)(=O)c2c(C)sc(C)c2-c2onc(C)c2C)cc1,-6,1.05
COc1ccc(N/C(N)=N/c2nc(=O)c3c([nH]2)CCCC3)cc1,-13,1.76
C[C@H](OC(=O)CNC(=O)c1cccc(F)c1)C(=O)N1CCCCCC1,9,-1.42
CCc1cccc(NC(=O)N2CCN(c3nccs3)CC2)c1,-2,0.21
Cc1nccn1CCN(C)C[C@]1(c2ccccc2)CCOC1,-5,0.88
CC1=NN(c2ccc(NC(=O)OCC(F)(F)F)cn2)C(=O)C1,-1,0.14
O=S(=O)(C[C@H]1CC2(CCC2)CO1)NCc1nccn1C(F)F,-1,0.13
CCO[C@@H](C)c1nccn1CCCC#N,-4,0.66

SMILES,% Inhibition [%],Z score
COc1ccc(COCC(=O)N(C)c2cccnc2C)cn1,-18,2.3
CCc1oc2c(NC(=O)N3CCN(CCOCCO)CC3)cccc2c1C,-5,0.94
Cc1c(Cl)cc(C(=O)NC[C@H]2CN(S(C)(=O)=O)CCO2)cc1Cl,2,-0.34
CN(C)c1cc(C(=O)N[C@H](c2cccs2)C2(CO)CCC2)ccn1,2,-0.32
O=C(NCc1nnc(C2CCCO2)[nH]1)N1CCCC2CCCC21 (stereo not given),-1,0.2
O=C(NCc1ccco1)c1cc2n(n1)CCN(Cc1ccc(C(F)(F)F)cc1)C2=O,4,-0.62
NC(=NOCc1sccc1Cl)c1ccsc1,4,-0.45
O=C1C2CCC(c3ccccc3)CC2C(=O)N1c1ccc(Oc2ccc(Cl)cc2Cl)cc1 (stereo not given),-2,0.21
CCOc1ccc(NC(=O)Cn2c(N3CCOCC3)nc3cc(C)n(C)c3c2=O)cc1,-15,1.56
CCc1[nH]nc(NC(=O)c2cccc(-n3cccn3)n2)c1C,1,-0.12
O=C1CCC[C@@H]2CN(S(=O)(=O)Cc3ccccc3)C[C@@H]2N1,27,-3.07
Cc1nc2ccccn2c1CN(C)C(=O)c1cc(C#N)c[nH]1,-16,3.11
Cc1ccccc1C(=O)N1CC[C@@H](c2cccs2)S(=O)(=O)CC1,-14,2.33
CC(=O)c1cccc(NC(=O)[C@@]23CCC(=O)N2c2ccccc2C(=O)N3C)c1,84,-11.29
O=c1[nH]cccc1S(=O)(=O)N1CCN(c2ccccc2)CC1,-8,0.92
Cc1ccccc1-c1cnc(Oc2ccc(C(=O)NCCC(C)C)cc2)nc1,-7,0.88
CC[C@@H](CO)NC(=O)NCc1snnc1C(C)C,0,0.07
COc1ncc(-c2nc(-c3ccccc3F)no2)c(C)n1,-4,0.43
Cc1nnc(N2CCOCC2)c2nn(-c3ccccc3Cl)c(C)c12,-34,4
